# In the RNAGym collection of RNA variant scans (doi:10.7554/elife.90254):
# The source gives no read counts; variants with many changes may rest on few reads.
# B1: LINE1-mini (parent)
# chain: GGCAGAGCUCAACACAGCGUGGCAAAGUGGCUGUGGCUAGACUGCC
# Variants of: B1
# Experiment: self-cleavage, relative activity (ratio to wild type); higher = more cleavage; in vitro, sequencing; the parent is a self-cleaving ribozyme
row,Variant,self-cleavage
1,A11G C13U A16G G21C,0
2,A11G C13U A26U,0
3,A11G C13U C18G,0.02
4,A11G C13U G29U,0.03
5,A11G C15A A24C,0.02
6,A11G C15A A41U,0.03
7,A11G C15A C18A G29A,0.01
8,A11G C15A C31A G36A A41G,0.01
9,A11G C15A G17A G19C A24G G36U,0.02
10,A11G C15A G19U U34G,0.02
11,A11G C15A G21U,0.02
12,A11G C15G C18U C23G C37U,0
13,A11G C15G C31G U43G G44C,0
14,A11G C15G G19A G22C A26G U28A C42G,0.01
15,A11G C15U A16G,0.01
16,A11G C15U C31A,0.03
17,A11G C15U C42G C46A,0
18,A11G C15U C46A,0.08
19,A11G C15U G35A,0.03
20,A11G C15U U20C G33U,0.01
21,A11G C18A A41G,0.02
22,A11G C18A G27A U34G A41U,0.01
23,A11G C18A G27U G40U,0
24,A11G C18A G27U G44A,0.02

row,Variant,self-cleavage
1,A11G C18A U32A C45G,0.01
2,A11G C18G C45A,0.01
3,A11G C18G G22C A25U A41C,0.01
4,A11G C18G G35U G36A G40C,0.03
5,A11G C18U G19C G29U,0.04
6,A11G C18U U28G,0
7,A11G C23A G36U C37A U43A,0.01
8,A11G C23A U32G,0.02
9,A11G C23G A39G,0.01
10,A11G C23G C45G,0.01
11,A11G C23G U32A G33A,0
12,A11G C23G U34G,0.02
13,A11G C23U A26U,0.04
14,A11G C23U G29U,0.02
15,A11G C31A C37U,0.01
16,A11G C31G A41G,0.01
17,A11G C37G C42U,0
18,A11G C37G G44U,0.01
19,A11G C37U A39G,0.01
20,A11G C37U C46U,0.01
21,A11G G17A G21U C31A,0.01
22,A11G G17C A41U,0.01
23,A11G G17C C18A C37G A39U G40C,0
24,A11G G17C C18U A24G,0.02

row,Variant,self-cleavage
1,A11G G17C C37A,0.02
2,A11G G17C C46G,0.01
3,A11G G17C G21C,0.04
4,A11G G17C U34C C37A,0.01
5,A11G G17U A26G,0.01
6,A11G G17U G30U U43C,0.01
7,A11G G17U G36U,0.02
8,A11G G19A A41U,0.01
9,A11G G19A C45U C46A,0.01
10,A11G G19A U20C G36U,0
11,A11G G19A U28A C42A U43C,0
12,A11G G19A U34C,0.02
13,A11G G19C A24G,0
14,A11G G19C A25C,0.01
15,A11G G19C C42A,0.01
16,A11G G19C C45U,0
17,A11G G19C G21A G27C C37G A41G C42U,0
18,A11G G19U A41C C42A,0.01
19,A11G G19U C31G G33U,0.02
20,A11G G21A A41G G44U,0.01
21,A11G G21A C23U C31U,0.03
22,A11G G21A G22C U28C C31G G33U,0.01
23,A11G G21U A41C,0.02
24,A11G G22A C45G,0.03

row,Variant,self-cleavage
1,A11G G22A G33U G44C,0
2,A11G G22C A24C U28G,0
3,A11G G22C C37G,0.03
4,A11G G22C G27A,0.01
5,A11G G22C G30C C37A,0.01
6,A11G G22C U34C C37U,0.01
7,A11G G22U A26G G36U,0.01
8,A11G G22U C45U C46A,0.03
9,A11G G22U G30A G33A G36A C45A,0.01
10,A11G G27A C46U,0.02
11,A11G G27A U34A C46U,0.01
12,A11G G27C U34G,0.01
13,A11G G27U C42U,0.02
14,A11G G29A A41U,0.02
15,A11G G29A G36C,0.02
16,A11G G29A G40C,0.01
17,A11G G29A U32A,0.02
18,A11G G29U G35U A41G,0.01
19,A11G G29U G36C,0
20,A11G G29U U32G,0.01
21,A11G G30C G33A,0.02
22,A11G G33A U43G,0
23,A11G G33C U34G U43A,0.05
24,A11G G35U C37G,0.01

row,Variant,self-cleavage
1,A11G G35U G40C,0.04
2,A11G G36C C37A,0.02
3,A11G G36U U43A,0.01
4,A11G G40U C45G,0.01
5,A11G G44A C45G,0
6,A11G G44C C46G,0
7,A11G U20A A26C,0.02
8,A11G U20C A39C A41G,0
9,A11G U20C A39U G40C,0.01
10,A11G U20C C23A U34A,0.02
11,A11G U20C G21A A24G U32C C37U,0.02
12,A11G U20C G21C,0.03
13,A11G U20G C23A U32A,0
14,A11G U20G C42U,0.05
15,A11G U20G U32C G40C,0.01
16,A11G U28A C46G,0.02
17,A11G U28C G40C,0.01
18,A11G U32G G35U A41C,0.01
19,A11G U34A G44C,0.03
20,A11G U38A A39G,0.02
21,A11G U43C C46A,0
22,A11U A12C A14C A25U G27U G36C,0.01
23,A11U A12C G17U,0.01
24,A11U A12C G21C C23A G27A,0.03

row,Variant,self-cleavage
1,A11U A12G A41G,0.02
2,A11U A12G C15A,0.03
3,A11U A12G C23A,0.03
4,A11U A12G C31A,0.02
5,A11U A12G G21A C23G,0
6,A11U A12G G40A U43A,0.01
7,A11U A12G U34G,0
8,A11U A12U A14U A16G G21A U38G C42U,0
9,A11U A12U C13G A16G C31A G36C,0
10,A11U A12U C15G G30U C42A,0
11,A11U A12U G17U G33A C42U G44A,0
12,A11U A14C G21A A24C G27C G33A,0.01
13,A11U A14C G27U C31U G33C C37G,0
14,A11U A14G C15G,0.02
15,A11U A14G C18G G19U C31G C45G,0.02
16,A11U A14G U32A,0.02
17,A11U A14U A24C G27A U38C C45A,0.01
18,A11U A14U A25G,0
19,A11U A14U C42A,0.01
20,A11U A16C C46U,0.01
21,A11U A16C G21C C23A G35A,0.01
22,A11U A16C G21C G29A G44A,0.02
23,A11U A16C G21U G22A G30A G35C C46U,0.01
24,A11U A16G G29A,0.02

row,Variant,self-cleavage
1,A11U A16G G33C,0
2,A11U A16G U32G,0.02
3,A11U A16U A25C G29U G40U,0.01
4,A11U A16U C18U A39G,0.01
5,A11U A16U C23A G30C G40C,0.01
6,A11U A16U C31G U38C U43A G44C,0.02
7,A11U A16U C31U C42A,0
8,A11U A16U C37A G40U C45U,0
9,A11U A16U G21C,0.05
10,A11U A16U G29A,0.05
11,A11U A16U G36C,0.02
12,A11U A16U U28A,0.01
13,A11U A24C A25U A41G G44U,0.01
14,A11U A24C C31A G36C C42U,0.02
15,A11U A24C G33A C45U,0
16,A11U A24G G35U,0.02
17,A11U A25C A26G U28A G44A,0.02
18,A11U A25G G27U C45U,0
19,A11U A25U C46G,0.21
20,A11U A25U G35U C42A,0.03
21,A11U A26C G27C G44A,0.05
22,A11U A26G U34C,0.02
23,A11U A26U G29U,0.14
